# In all, about 110,000 compounds were measured (“z-score”: median about -0.1, highest 2% from about 2 on). This is one part of the list. Active and inactive are the calls of the source.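 Rule for the calls: active = z-score in the third read window above 3 or below -3; inactive = the rest.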
# Target: Metabotropic glutamate receptor 8 (Rattus norvegicus) (UniProt P70579)
# Experiment: mGluR8 Gi/Go-coupled signaling modulation – cell-based, rat, thallium flux, HTS, primary screen (AID 488969)
# Details: HEK293 rat mGluR8, GIRK (G protein-gated inwardly rectifying potassium channel) thallium flux, FluoZin2; at 10 µM; stronger effect = higher value; submaximal glutamate (EC20) added with thallium
# Sequence of UniProt P70579 (P70579 whole entry, looked up): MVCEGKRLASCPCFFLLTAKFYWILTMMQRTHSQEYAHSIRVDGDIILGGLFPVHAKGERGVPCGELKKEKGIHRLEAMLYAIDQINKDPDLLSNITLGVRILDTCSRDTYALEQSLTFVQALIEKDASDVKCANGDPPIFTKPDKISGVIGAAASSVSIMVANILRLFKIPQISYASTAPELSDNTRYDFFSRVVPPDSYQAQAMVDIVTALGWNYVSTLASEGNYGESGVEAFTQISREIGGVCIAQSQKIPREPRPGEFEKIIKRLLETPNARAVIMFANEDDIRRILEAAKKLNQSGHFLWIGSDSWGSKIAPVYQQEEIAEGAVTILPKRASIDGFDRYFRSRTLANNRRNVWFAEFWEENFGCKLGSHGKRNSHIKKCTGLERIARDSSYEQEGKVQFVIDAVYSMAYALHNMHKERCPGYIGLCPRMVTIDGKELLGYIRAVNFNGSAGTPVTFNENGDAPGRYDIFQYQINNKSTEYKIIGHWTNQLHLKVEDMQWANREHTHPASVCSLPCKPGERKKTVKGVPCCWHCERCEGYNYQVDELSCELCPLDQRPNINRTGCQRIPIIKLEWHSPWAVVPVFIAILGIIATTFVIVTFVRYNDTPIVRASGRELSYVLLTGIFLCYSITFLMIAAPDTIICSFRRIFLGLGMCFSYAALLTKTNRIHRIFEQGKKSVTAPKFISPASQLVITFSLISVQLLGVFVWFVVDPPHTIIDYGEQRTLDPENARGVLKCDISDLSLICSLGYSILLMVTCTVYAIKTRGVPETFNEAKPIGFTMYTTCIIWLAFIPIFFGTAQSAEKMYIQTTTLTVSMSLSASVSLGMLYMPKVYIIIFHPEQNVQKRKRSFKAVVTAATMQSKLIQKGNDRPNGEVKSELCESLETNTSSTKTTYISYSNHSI
row,SMILES,z-score
1,O=C(CSc1nc2ccccc2o1)N1CCN(C(=O)c2ccco2)CC1,-0.103
2,CCCCCC(=O)Nc1ccc2oc(-c3cccnc3)nc2c1,-0.137
3,O=C(O)c1nn2c(c1Br)NC(c1ccccc1)CC2C(F)(F)F (stereo unspecified),0.232
4,COC(=O)c1c(-c2ccccc2)csc1NC1=NS(=O)(=O)c2ccccc21,-0.125
5,O=C(c1cccs1)N1CCN(C(=O)N2CCOCC2)CC1,0.265
6,COc1ccccc1OCCn1cc(/C=C(\C#N)C(=O)NCc2ccco2)c2ccccc21,-0.138
7,CC(=O)Nc1ccccc1-c1nc2ccc(C(=O)N3CCN(c4cccc(C)c4)C(C)C3)cc2[nH]c1=O (stereo unspecified),-0.161
8,O=C(Cc1ccccc1)Nc1ccc(CN2CCOCC2)cc1,0.203
9,CCN(CC)C(=O)CSc1nnc(-c2ccc(S(=O)(=O)NCc3ccccc3Cl)cc2)o1,-0.0586
10,CSC1=NCCN1C(=O)c1ccc(S(=O)(=O)N2CCOCC2)cc1,0.58
11,O=C1c2oc3ccc(F)cc3c(=O)c2C(c2ccc(F)cc2)N1CCCN1CCOCC1 (stereo unspecified),0.289
12,CCCc1nnc(SCC(=O)N2CCCCC2C)n1CC1CCCO1 (stereo unspecified),0.0274
13,CCCNC(=O)C1CCN(S(=O)(=O)c2ccc3nc4c(c(C(=O)O)c3c2)CCCCC4)CC1,0.104
14,CCN1C(=O)NC2C1N(S(C)(=O)=O)CCN2S(C)(=O)=O (stereo unspecified),0.683
15,O=C(O)C1Sc2[nH]c(=O)sc2C2c3cc(Cl)ccc3OC(=O)C12 (stereo unspecified),-0.16
16,O=C(c1cccc(Br)c1)N1CCN(C(=O)N2CCCCC2)CC1,-0.345
17,CS(=O)(=O)N(CC(=O)NCc1cccnc1)Cc1ccc(Cl)cc1,0.199
18,CC(C)NC(=O)CN(CCc1ccccc1)S(C)(=O)=O,-0.11
19,O=C(c1ccccc1)c1ccc2nc(N3CCN(C(=O)c4ccco4)CC3)c3nncn3c2c1,-1.87
20,Cc1ccc(NC(=O)Nc2cccs2)c(Cl)c1,0.676
21,Cc1ccc(C2/C(=C(\O)c3ccc4c(c3)OCCO4)C(=O)C(=O)N2CCCN(C)C)o1 (stereo unspecified),-0.258
22,Cc1ccc(S(=O)(=O)N2c3ccccc3-c3c(ssc3=S)C2(C)C)cc1,0.293
23,Cc1ccc(-c2n[nH]c(=O)c3ccccc23)cc1N,0.567
24,Cc1cc(Cl)c(S(=O)(=O)N/N=C/c2ccc3c(c2)OCO3)c(Cl)c1,-0.527

row,SMILES,z-score
1,O=C(Cn1cnc2ccccc21)N/N=C/c1ccco1,0.0037
2,COc1cccc(-c2cc(C(=O)Nc3ccc4c(c3)OCCO4)c3ccccc3n2)c1,-0.22
3,O=C(c1ccco1)N1c2ccccc2Sc2ccccc21,-1.03
4,COc1ccc(OC)c(/C=N/NC(=O)CSc2nnc(C)n2-c2ccccc2)c1,-0.183
5,O=c1cc(N2CCCCC2)nc2n1CCCS2,-0.21
6,CC1CCc2nn(CC(=O)NC3CCCC3)cc2C1 (stereo unspecified),-0.653
7,CC(C)(C)NC(=O)/C(=C\c1ccc(Br)cc1)NC(=O)c1cccs1,0.12
8,N#Cc1nc(-c2ccc(Cl)cc2)oc1NCc1cccc2c1OCO2,-0.253
9,CC(O)CNc1cc(N)c([N+](=O)[O-])cc1[N+](=O)[O-] (stereo unspecified),-0.186
10,O=C(Nc1ccc(Cn2cccn2)cc1)c1ccc(COc2ccc(Br)cc2)cc1,0.105
11,Cc1ccc(N2CCN(S(=O)(=O)c3ccc(F)cc3)CC2)c(C)c1,0.259
12,CCONC(=O)Nc1ccccc1,0.0707
13,O=S(=O)(c1ccc2c(c1)nc1n2CCC1)N1CCOCC1,-0.0595
14,CCN1CCC(=NNC(=O)c2ccc(C)c([N+](=O)[O-])c2)CC1,-0.488
15,Cc1ccc(-n2c3c(cc(C(=O)NC4CCSC4=O)c2=O)C(=O)CCC3)cc1 (stereo unspecified),0.433
16,CCC1=NN(C(=O)c2cccnc2)C(O)(C(F)(F)F)C1 (stereo unspecified),-0.17
17,CCOC(=O)c1cn2nc(-c3ccc(OC)cc3)cc2nc1C1CCN(C(=O)OC(C)(C)C)CC1,-0.054
18,Cc1ccc2nc(-c3cccnc3SCC(=O)N3c4ccccc4CC3C)[nH]c2c1 (stereo unspecified),-0.0959
19,O/N=C/c1cc(Cl)ccc1OCc1ccccc1Cl,-0.352
20,COC(=O)c1cc(Br)ccc1NC(=O)Nc1ccc(C)cc1,0.037
21,C=CCSC1=C(C#N)C(c2ccccc2C)CC(=O)N1 (stereo unspecified),-1.48
22,Cc1ccccc1OCC1Cc2c(nc(N)c(C#N)c2N)O1 (stereo unspecified),-0.0716
23,S=c1[nH]nc(CCc2ccc(Cl)cc2)o1,0.169
24,CCOC(=O)c1ccc(NC2c3ccccc3C(=O)N2c2ccc(C)cn2)cc1 (stereo unspecified),-0.173

row,SMILES,z-score
1,O=S1(=O)C=C(SCc2ccc(Cl)c(Cl)c2)Nc2ccccc21,-0.446
2,COc1ccc2nc(NC(=O)CSC3=NCCS3)sc2c1,-0.0786
3,CC(C)Oc1ccc(/C(O)=C2/C(=O)C(=O)N(CCCn3ccnc3)C2c2cccnc2)cc1 (stereo unspecified),-0.0218
4,CCCC(=O)Nc1ccccc1NC(C)=O,0.269
5,COC(=O)CNC(=O)COC(=O)c1cc(Cl)cc(Cl)c1N,-0.185
6,CCC(=O)N/C(=N\OCc1ccc(F)cc1)c1nonc1NC(=O)CC,-0.064
7,COc1ccc(CCNC(=O)c2cnc3n(c2=O)CCS3)cc1OC,-0.349
8,Cc1cc(C)n(-c2nc(C)nc3sc4c(c23)CCC(C)C4)n1 (stereo unspecified),-1.29
9,CNC(=S)SCCOc1ccccc1C,0.297
10,CC(C)(C)C(=O)/C=c1\[nH]c(=O)/c(=C\c2ccc(F)cc2)s1,active: 5.06
11,CCOc1c2ccc(C(=O)NCCc3cccs3)cc2nn1CC,-0.0309
12,O=C(Nc1cccc(-c2nnc(-c3ccccc3)o2)c1)c1ccc(Br)o1,-0.452
13,Cc1c(NC(=S)NC(=O)C(C)(C)C)c(=O)n(-c2ccccc2)n1C,-0.0749
14,CCC(C)NCC(=O)Nc1sc2c(c1C(N)=O)CCC2 (stereo unspecified),-0.174
15,CCCCN(C(=O)NC(=O)Nc1cccc(C)c1C)S(C)(=O)=O,-0.937
16,O=C(Nc1ccccc1C(=O)N1CCCC1)c1ccccc1,-0.138
17,COC(=O)C1=C(C)N(c2ccc(Br)cc2)C(=O)/C1=C\c1ccco1,-1.49
18,Cc1ccc(NC(=O)CCC(=O)OCCCC(F)(F)C(F)(F)F)cc1,1.25
19,CCOC(=O)C1CCCN(c2cc(=O)n(Cc3ccc(F)cc3)c(=O)[nH]2)C1 (stereo unspecified),-0.303
20,COc1ccccc1N(C)S(=O)(=O)c1ccc(C(=O)NC(C)(C)C)cc1,-0.0357
21,CCn1cc(C(C)(C)C)c(C#N)c1NC(C)=O,-0.224
22,CC(=O)C1=C(C)NC(C)=C(C(C)=O)C1c1ccc(-c2ccccc2Cl)o1,0.666
23,COC(=O)c1ccccc1NC(=O)CSCC(=O)Nc1ccc(F)cc1,-0.231

# Source: PubChem BioAssay AID488969 (Vanderbilt High Throughput Screening Facility, 2010)
